The supplement of paper PMC12217912
The other results are listed elsewhere or left out. Sequences were assembled here from the parent chain. Inactive controls read about 0.05.

B1: TEV protease; numbered along this chain (parent)
chain: MGESLFKGPRDYNPISSSICHLTNESDGHTTSLYGIGFGPFIITNKHLFRRNNGTLVVQSLHGVFKVKDTTTLQQHLVDGRDMIIIRMPKDFPPFPQKLKFREPQREERICLVTTNFQTKSMSSMVSDTSCTFPSGDGIFWKHWIQTKDGQCGSPLVSTRDGFIVGIHSASNFTNTNNYFTSVPKNFMELLTNQEAQQWVSGWRLNADSVLWGGHKVFMVKPEEPFQPVKEATQL

Variants of: B1
Experiment: raw area under fraction-flipped curve 0-4 h after induction (AUC4h, not background-subtracted), DNA-recorder readout of cleavage of the substrate (dimensionless); higher = more cleavage of the substrate by the protease variant
Details: temperature: 34 °C; time window: 0-4 h after rhamnose induction
Procedure: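 In vivo DNA recorder in E. coli TOP10(DE3) ΔrhaA at 34 °C. Each TEVp single-site mutant (parent TEVp 0) is paired with a single-site variant of the 7-mer TEVs (canonical ENLYFQ|S). The substrate sits between flexible linkers in a Bxb1-sfGFP-TEVs-SsrA fusion, so cleavage stabilises Bxb1 and speeds flipping of a recombination array, read by NGS. The value is the raw area under the fraction-flipped curve over 0-4 h after rhamnose induction (AUC4h), with ≥20 reads per time point. It is not background-subtracted; inactive controls average about 0.047.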
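Further: Bxb1 expression induced with 0.2% (w/v) L-rhamnose at OD600 near 0.5, cultures sampled hourly, flipped fraction per protease–substrate barcode pair counted by paired-end Illumina sequencing.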

Variant	area with substrate EDLYFQS	area with substrate EELYFQS	area with substrate EKLYFQS	area with substrate EMLYFQS	area with substrate ERLYFQS	area with substrate ESLYFQS	area with substrate EVLYFQS	area with substrate EWLYFQS	area with substrate EHLYFQS	area with substrate EILYFQS	area with substrate ELLYFQS	area with substrate EPLYFQS	area with substrate EQLYFQS	area with substrate ETLYFQS	area with substrate EFLYFQS	area with substrate EGLYFQS	area with substrate EYLYFQS
MGESLFKGPRDYNPISSSICHLTNESDGHTTSLYGIGFGPFIITNKHLFRRNNGTLVVQSLHGVFKVKDTTTLQQHLVDGRDMIIIRMPKAFPPFPQKLKFREPQREERICLVTTNFQTKSMSSMVSDTSCTFPSGDGIFWKHWIQTKDGQCGSPLVSTRDGFIVGIHSASNFTNTNNYFTSVPKNFMELLTNQEAQQWVSGWRLNADSVLWGGHKVFMVKPEEPFQPVKEATQL [D91A]	0.163	0.143	0.113	0.119	0.124	0.0979	0.149	0.084									
MGESLFKGPRDYNPISSSICHLTNESDGHTTSLYGIGFGPFIITNKHLFRRNNGTLVVQSLHGVFKVKDTTTLQQHLVDGRDMIIIRMPKHFPPFPQKLKFREPQREERICLVTTNFQTKSMSSMVSDTSCTFPSGDGIFWKHWIQTKDGQCGSPLVSTRDGFIVGIHSASNFTNTNNYFTSVPKNFMELLTNQEAQQWVSGWRLNADSVLWGGHKVFMVKPEEPFQPVKEATQL [D91H]	0.12		0.136		0.109	0.111	0.104	0.0717	0.113	0.0977	0.085	0.129	0.108	0.114			
MGESLFKGPRDYNPISSSICHLTNESDGHTTSLYGIGFGPFIITNKHLFRRNNGTLVVQSLHGVFKVKDTTTLQQHLVDGRDMIIIRMPKDFPPFPQKLKFREPQREERICLVTTNFQTKSMSSMVSDTSCTFPSGDGIFWKHWIQTKDGQCGSPLVSTRDGFIVGIHSASNFTNTNNYFTSVPKNFMELLTNQEAQQWVSGWRLNADSVLWGGHKVFMIKPEEPFQPVKEATQL [V220I]	0.103	0.101	0.0958		0.102		0.106	0.0859			0.0826		0.0868	0.119	0.0665		
MGESLFKGPRDYNPISSSICHLTNESDGHTTSLYGIGFGPFIITNKHLFRRNNGTLVVQSLHGVFKTKDTTTLQQHLVDGRDMIIIRMPKDFPPFPQKLKFREPQREERICLVTTNFQTKSMSSMVSDTSCTFPSGDGIFWKHWIQTKDGQCGSPLVSTRDGFIVGIHSASNFTNTNNYFTSVPKNFMELLTNQEAQQWVSGWRLNADSVLWGGHKVFMVKPEEPFQPVKEATQL [V67T]	0.0995	0.0942	0.0653			0.0803	0.0628			0.0754	0.0812						
MGESLFKGPRDYNPISSSICHLTNESDGHTTSLYGIGFGPFIITNKHLFRRNNGTLVVQSLHGVFKVKDTTTLQQHLVDGRYMIIIRMPKDFPPFPQKLKFREPQREERICLVTTNFQTKSMSSMVSDTSCTFPSGDGIFWKHWIQTKDGQCGSPLVSTRDGFIVGIHSASNFTNTNNYFTSVPKNFMELLTNQEAQQWVSGWRLNADSVLWGGHKVFMVKPEEPFQPVKEATQL [D82Y]	0.0422	0.0715	0.0597		0.0537		0.0458			0.0472				0.0697		0.0606	0.0624
